# Source: PubChem BioAssay AID651820 (National Center for Advancing Translational Sciences (NCATS), 2012)
# Hit rate of the full screen: of about 340,000 compounds, about 12,000 (3.5%) were called active. Inconclusive means that the source gave no clear call. Such entries were picked first, then a sample of the others. Calls follow the shape of the dose curve; as a rule, active = well fitted inhibition curve with a large enough effect; inconclusive = small, poorly fitted or top-dose-only effect, or another doubt; inactive = no such curve, though single readings can be large or run the other way. Potencies of inconclusive entries are left out as doubtful fits.
# Test: qHTS Assay for Inhibitors of Hepatitis C Virus (HCV)
# Settings: Huh7.5.1 HCVcc-Cre (HCVcc is cell-culture hepatitis C virus) infection, luciferase reporter, 44 h; series mostly up to 41.8 µM
# Method in brief: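 Infectious HCVcc-Cre (~0.5 moi) was added to cells just after compound, with cells seeded 4 h earlier at 1,000 per well. Luciferase activity after 44 h culture reported infection; substrate was incubated 15 min at room temperature before reading.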
# Potency is read from the fitted curve at half-maximal effect; tags tell the direction and shape of the fitted curve.
row,SMILES,Potency
1,CCCC[n+]1ccn(C2=C([O-])c3ccccc3C(=O)/C2=N\S(=O)(=O)c2ccc(Br)cc2)c1,active: 10 µM
2,c1ccc(-n2nnnc2SCc2cccc(CSc3nnnn3-c3ccccc3)n2)cc1,"inconclusive [inhibitor, partial curve]"
3,CCc1ccc(CCC(=O)Nc2ncc(Cc3ccccc3Cl)s2)o1,"inconclusive [inhibitor, partial curve, poor fit]"
4,Cc1n[nH]c(C)c1N=Nc1cc(Cl)ccc1Cl,"inconclusive [inhibitor, single point]"
5,COc1ccccc1C1CCN(C(=O)c2ccc(C(C)(C)C)cc2)CC1,"inconclusive [inhibitor, partial curve, poor fit]"
6,COc1ccc(-c2sc3ccc(N4CCOCC4)cc3c2C#CCCO)cc1,active: 3.98 µM
7,S=C(NCc1ccco1)Nc1ccc(Br)cc1Cl,inactive
8,COc1cc2c(c(OC)c1OC)-c1ccc(SC)c(=O)cc1C(NC(=O)C(F)(F)F)CC2 (stereo not drawn),inactive
9,Brc1cccc(CNCCCN2CCOCC2)c1,"inconclusive [inhibitor, single point]"
10,COc1ccc(OC)c(S(=O)(=O)N/N=C\c2c[nH]c3ccccc23)c1,active: 11.2 µM
11,COc1ccc(C2=NCC(=O)N(CC(=O)NCc3ccco3)c3sc4c(c32)CCCC4)cc1,"inconclusive [inhibitor, partial curve]"
12,N#Cc1cc2c(nc1SCC(=O)N1CCCCC1)CCCCC2,inactive
13,COc1ccc(Cl)cc1NC(=O)C(C)OC(=O)C1=NNC(=O)CC1 (stereo not drawn),"inconclusive [inhibitor, partial curve]"
14,CCOc1cc(-c2nc(C)c(C(C)=O)n2O)ccc1OCC(=O)Nc1ccccc1,"inconclusive [inhibitor, full curve]"
15,O=C(NN1C(=O)/C(=C/c2ccc(O)c([N+](=O)[O-])c2)SC1=S)c1ccccc1Cl,"inconclusive [inhibitor, single point]"
16,CC(C(=O)Nc1ccccc1C#N)N1C(=O)NC2(CCCCCC2)C1=O (stereo not drawn),"inconclusive [inhibitor, single point]"
17,C[C@@]12C(=O)N(CCc3c[nH]c4ccccc34)CC(=O)N1[C@H]1c3ccccc3OC[C@@H]1[C@@H]2c1ccccc1,"inconclusive [inhibitor, single point]"
18,O=C(CCn1c2c(c3ccccc31)CCCC2)NNC(=O)c1ccccc1Cl,"inconclusive [inhibitor, single point]"
